Test results published in PMC4918322, “The chromatin remodeller RSF1 is essential for PLK1 deposition and function at mitotic kinetochores” (Nature Communications, 2015).

Target: T1, recombinant V5-tagged full-length RSF1 (human, UniProt Q96T23 1-1441)
T1 construct: RSF1 (remodelling and spacing factor 1), full length; printed both as RSF1-V5 and V5-RSF1, so the end of the tag is open; also called RSF1-V5; V5-RSF1; source: FreeStyle 293-F (HEK293F) cells, secreted into the culture medium, concentrated; purified on anti-V5 Sepharose if necessary
T1 sequence (looked up): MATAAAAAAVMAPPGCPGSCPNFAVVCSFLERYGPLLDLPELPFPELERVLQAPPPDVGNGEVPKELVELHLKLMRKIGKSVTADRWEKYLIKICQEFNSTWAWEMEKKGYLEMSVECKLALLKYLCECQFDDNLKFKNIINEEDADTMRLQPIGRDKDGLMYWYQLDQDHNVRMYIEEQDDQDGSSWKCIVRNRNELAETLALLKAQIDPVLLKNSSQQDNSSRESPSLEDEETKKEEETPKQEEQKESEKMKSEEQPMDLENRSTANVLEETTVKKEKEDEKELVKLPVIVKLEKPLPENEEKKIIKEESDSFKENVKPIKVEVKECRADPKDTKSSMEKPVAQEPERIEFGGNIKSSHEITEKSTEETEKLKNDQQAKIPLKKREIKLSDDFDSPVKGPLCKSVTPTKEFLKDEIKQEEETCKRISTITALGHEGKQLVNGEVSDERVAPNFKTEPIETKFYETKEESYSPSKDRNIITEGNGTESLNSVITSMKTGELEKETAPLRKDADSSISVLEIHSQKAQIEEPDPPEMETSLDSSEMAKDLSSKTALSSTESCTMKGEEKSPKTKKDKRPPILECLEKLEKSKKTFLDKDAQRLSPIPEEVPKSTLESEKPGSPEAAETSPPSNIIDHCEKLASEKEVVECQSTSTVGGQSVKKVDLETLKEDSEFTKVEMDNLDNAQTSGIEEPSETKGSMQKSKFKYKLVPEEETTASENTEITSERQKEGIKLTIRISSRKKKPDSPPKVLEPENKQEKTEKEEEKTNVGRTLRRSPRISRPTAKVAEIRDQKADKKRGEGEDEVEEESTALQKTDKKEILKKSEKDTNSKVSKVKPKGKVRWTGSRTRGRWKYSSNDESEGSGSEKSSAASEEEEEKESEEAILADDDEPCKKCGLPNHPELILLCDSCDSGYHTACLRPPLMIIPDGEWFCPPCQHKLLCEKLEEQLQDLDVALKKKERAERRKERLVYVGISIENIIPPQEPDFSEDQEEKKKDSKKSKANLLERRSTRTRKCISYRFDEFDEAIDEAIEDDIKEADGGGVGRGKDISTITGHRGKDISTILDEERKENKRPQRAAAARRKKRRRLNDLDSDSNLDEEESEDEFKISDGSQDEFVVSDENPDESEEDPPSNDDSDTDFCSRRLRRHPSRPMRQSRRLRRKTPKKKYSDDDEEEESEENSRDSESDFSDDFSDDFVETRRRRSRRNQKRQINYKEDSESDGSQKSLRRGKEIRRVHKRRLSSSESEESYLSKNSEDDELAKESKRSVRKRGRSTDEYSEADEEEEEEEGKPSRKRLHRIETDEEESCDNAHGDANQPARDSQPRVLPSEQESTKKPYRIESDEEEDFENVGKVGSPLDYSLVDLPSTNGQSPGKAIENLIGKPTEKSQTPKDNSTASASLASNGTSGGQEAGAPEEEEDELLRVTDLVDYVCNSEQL
Experiment: pull-down; in vitro binding assay: Myc-, HA- or Flag-tagged protein immunopurified from mitosis-enriched HEK293T cells and immobilised on beads, incubated with recombinant RSF1-V5 for 2 h at 4 °C; bound RSF1-V5 detected by immunoblotting
Conditions: both partners purified

B1: Flag-PLK1-C ([…]) (domain or fragment)
chain: not shown
notes: PLK1, C terminus with two Polo-box domains, […]; source: mitosis-enriched HEK293T cells, immunopurified
B1: binds.

B2: Flag-PLK1 kinase-dead mutant (PLK1 K82R) (natural protein)
chain: not shown
notes: Polo-like kinase 1 (PLK1), kinase dead; also called KD; source: mitosis-enriched HEK293T cells, immunopurified
B2: binds.
